Reference: PubChem BioAssay AID1963576 (National Center for Advancing Translational Sciences (NCATS), 2024)
About 60 (0.1%) of roughly 46,000 compounds were called active. Inconclusive results (about 3%) are left out. Calls follow the shape of the dose curve; as a rule, active = well fitted inhibition curve with a large enough effect; inconclusive = small, poorly fitted or top-dose-only effect; inactive = no such curve, though single readings can be large or run the other way. This is one part of the list.

Assay: Primary qHTS assay for Inhibitors of ovarian cancer metastasis using an organotypic tumor microenvironment (TME) model. Also: nearly all actives have a fitted effect of over 65% in size.
Conditions: SKOV3ip1-GFP adhesion/invasion on 3D omental model, fluorescence; series mostly up to 45.8 µM; activity change, negative = inhibition: at the top concentration
Excerpt: PI: Ernst Lengyel MD., Ph.D. Department of Obstetrics and Gynecology, Section of Gynecologic Oncology University of Chicago Medicine, Chicago, Illinois. The tumor microenvironment (TME) is a key determinant of metastatic efficiency. We performed a quantitative high-throughput screen (qHTS) of diverse medicinal chemistry tractable scaffolds (44,420 compounds) and pharmacologically active small molecules (386 compounds) using a layered organotypic, robust assay representing the ovarian cancer metastatic TME. This 3D model contains primary human mesothelial cells, fibroblasts, and extracellular matrix, to which fluorescently labeled ovarian cancer cells are added. Initially, 100 compounds inhibiting ovarian cancer adhesion/invasion to the 3D model in a dose-dependent manner were identified. Of those, eight compounds were confirmed active in five high-grade serous ovarian cancer cell lines and were further validated in secondary in vitro and in vivo biological assays. […] Specifically, NCGC00117362 and PP-121 inhibited ovarian cancer adhesion, invasion, and proliferation, whereas milciclib inhibited ovarian cancer invasion and proliferation. […] To evaluate the clinical potential of NCGC00117362, structure - activity relationship studies were performed. […] The three compounds identified have promise as therapeutics for prevention and treatment of ovarian cancer metastasis.
PROTOCOL TABLE (as described by Inglese J, Shamu CE and Guy RK. 2007) SEQUENCE No. (e.g., 1, 2, 3, etc.); […] (e.g., Cells, Incubation, Reagent, etc.); VALUE; DESCRIPTION. 1; Cells; 4 uL; primary human omental fibroblast, black, clear bottom, low base, 1536-well Aurora assay plate. 2; Incubation; 48 hr; 37C. 3; Cells; 3 uL; 1,200 SKOV3ip1-GFP cells. 4; Compounds; 23nL; acoustic dispenser. 5; Incubation; 2 hr; room temperature. 6; Incubation; 16 hr; 37C. 7; Wash; 5 uL; 1x PBS. 8; Fixing; 5 uL; 4% paraformaldehyde (PFA). 9; Incubation; 15 min; room temperature 10; Wash, 5 uL; 1x PBS. 11; Detection; Fluorescence, excitation filter 488 nm, emission filter 509 nm. NOTES (numbers refer to Sequence numbers above) 1. For the 1,536-well format, 40 primary human omental fibroblasts and 400 mesothelial cells were seeded with 0.02 µg fibronectin and 0.02 µg collagen type I in 4 µL of growth media (2.3 mm2; Supplementary Fig. S1A). 2. Assay plates were incubated for 48 hours at 37 C. 3. After incubation, 1,200 SKOV3ip1-GFP were seeded in 3 µL of serum-free media (growth media minus FBS) on top of primary human omental cells. 4. Compounds or controls were added to each well immediately after the addition of the cancer cells. Compounds were screened in four doses (0.36-46 µmol/L), and the plates contained the positive control (Tomatine) in eight doses (0.035-75 µmol/L) and DMSO (equal volume controls) 5 - 6. The plates were incubated at room temperature for 2 hours and then at 37 degrees C for 16 hours. 7 - 10. Following incubation, the media were aspirated and each well washed with PBS (5 µL) and then fixed with 4% paraformaldehyde (PFA; 5 µL). After 15 minutes, the PFA solution was aspirated, PBS (5 µL) was added. 11. The number of GFP-labeled cells analyzed using a fluorescent cytometer TTP LabTech Acumen eX3 using 488 nm excitation filter and 509 nm emission filter. Data was normalized to the DMSO treated for negative and Tomatine treated wells for positive control. REFERENCES: Inglese J, Shamu CE and Guy RK, Reporting data from high throughput screening of small molecule libraries, Nature Chemical Biology, 2007, 3(8): 438-441. doi.org/10.1038/nchembio0807-438. Yasgar A, Shinn P, Jadhav A, Auld DS, Michael S, Zheng W, Austin CP, Inglese J and Simeonov A, Compound Management for Quantitative High-Throughput Screening. J. Assoc. Lab. Auto., 2008, 13: 79-89. doi: 10.1016/j.jala.2007.12.004.

outcome, inactive:
COc1cc(NC(=O)c2oc3c(c2C)-c2nn(Cc4cccc(Cl)c4)cc2CC3)cc(OC)c1
Cc1oc(-c2ccccc2F)nc1CS(=O)(=O)CC(=O)NCCc1ccc(Cl)cc1
COc1ccc([C@@H]2CNC(=O)C2)cc1OC1CCCC1
CCN(CCCNC(=O)c1cc2c(Cl)nc3ccccc3c2s1)Cc1ccccc1
COc1ccccc1C(=O)Nc1ccc(OCc2cc(=O)n3ccsc3n2)cc1
CCc1ccc(S(=O)(=O)N(C(=O)Oc2ccccc2)c2ccc3oc(C)c(C(=O)OC)c3c2)cc1
CCCCN(CCCC)C(=O)C1CCN(S(=O)(=O)c2cccc3nsnc23)CC1
COc1ccccc1CNC(=O)CC(c1ccc(OC)c(OC)c1)N1Cc2ccccc2C1=O (configuration not stated)
Cc1c(-c2ccc(Cl)cc2)c(=O)oc2ccc(OC(=O)N3CCOCC3)cc12
O=C(O)c1cccc(Nc2ncnc3scc(-c4ccccc4)c23)c1
CCC(C)NC(=O)CCSc1nc(-c2ccc(OC)cc2)cc(C(F)(F)F)n1 (configuration not stated)
O=C(NCc1ccc(F)cc1)c1cc(-c2ccc(Cl)cc2)n[nH]1
Cc1ccccc1C(=O)Oc1c(Sc2ccccc2)c(C)nn1C(C)(C)C

Activity change, negative = inhibition, inactive:
O=C(Nc1ccc(OC(F)(F)F)cc1)C1CCN(S(=O)(=O)c2cccs2)CC1 -32.4%
CCn1cc(S(=O)(=O)c2ccccc2)c(=O)c2cc(F)c(N3CCN(c4ccccc4)CC3)cc21 4.34%
CCN(CC)C(=O)c1sc2c(c1C)c(=O)n(-c1ccc(OC)cc1OC)c(=O)n2CC(=O)c1ccc(Cl)cc1 -5.92%
Cn1c2ccccc2c2cnn(CC(=O)Nc3ccccc3C(F)(F)F)c(=O)c21 2.11%
Cc1ccccc1-c1noc(-c2ccc(N3CCOCC3)c([N+](=O)[O-])c2)n1 -4.14%
Cc1ccc(-n2c(=O)c3c(cnn3C)n(Cc3ccccc3F)c2=O)cc1 1.88%
O=C(NCCc1nc2ccccc2n1Cc1ccc(Cl)cc1Cl)c1ccco1 -1.79%
CCn1ccc2c(OCC(=O)NCc3ccc(F)cc3)cccc2c1=O 11.1%
Cc1ccc(-c2noc(-c3ccccc3NC(=O)C3CC(=O)N(c4ccccc4C)C3)n2)cc1 (configuration not stated) -2.42%
Cc1nn(-c2ccc(N3CCCC3)nn2)c(C)c1CCC(=O)Nc1ccc(F)c(Cl)c1 -1.07%
CCc1nn(CC(=O)Nc2ccc(N(CC)CC)cc2C)c(=O)c2cc3sccc3n12 5.81%
CC(C)Sc1ncc(Cl)c(C(=O)N(Cc2ccc(N(C)C)cc2)C2CCS(=O)(=O)C2)n1 (configuration not stated) -1.25%
N#Cc1ccc(C(=O)Nc2ccc3c(c2)N(C2CCCC2)C(=O)c2ccccc2S3)cc1 12.6%
Oc1cc(-c2nc(-c3ccccc3)[nH]c2-c2ccncc2)ccc1Cl -11.5%
CCOc1ccc(C2C(C(=O)Nc3ccccc3)=C(C)Nc3nc(SCc4cc(C)ccc4C)nn32)cc1 (configuration not stated) 9.54%
Cc1cc(C)c2nc(N(Cc3cccnc3)C(=O)c3cccs3)sc2c1 -4.96%
CC(C)Cn1c(=O)c2ccccc2n2c(CCC(=O)NC(C)c3ccccc3)nnc12 (configuration not stated) -9.9%
COc1ccc(CC(=O)NCCc2csc3nc(-c4ccccc4F)nn23)cc1 1.97%
Cc1ccc(NC(=O)CN(C)S(=O)(=O)c2ccc3[nH]c4c(c3c2)CCCC4)c(Cl)c1 -1.18%
COc1ccc(N2CCN(c3oc(-c4ccc(COc5cccc(C)c5)o4)nc3C#N)CC2)cc1 6.41%
COc1cc(-c2nc(Cn3nnc(C(=O)Nc4ccc(C)cc4C)c3C)c(C)o2)cc(OC)c1OC 18%
CCCN(C(=O)CCc1nc(-c2ccc(OC)cc2)no1)c1ccccc1F 1.45%
CSc1ncc(C(=O)N2CCN(c3cc(Cl)ccc3C)CC2)c(C)n1 3.88%
COc1cccc2cc(-c3nnc(Nc4c(F)cccc4F)s3)c(=O)oc12 -0.64%
CCC(=O)c1cc2c(cc1NC(=O)c1ccccc1F)OCCO2 -29.9%
CCN(CC)c1sc(S(=O)(=O)c2ccccc2)nc1S(=O)(=O)c1ccc(C)cc1 3.25%
CC1=C(C(=O)Nc2ccc(C)cc2Cl)C2(CCCCCC2)OC1=O 0.624%
CCOc1ccc(CCNC(=O)c2ccc(-n3c(C)cc4c3CCC(C)C4)cc2)cc1OCC (configuration not stated) -3.7%
Cc1ccc(C)c2sc(N3CCN(C(=O)C(C)(C)C)CC3)nc12 10.2%
O=C(CSc1nc2c([nH]c3ccccc32)c(=O)n1-c1ccccc1)Nc1ccc2c(c1)OCCO2 5.34%
COc1ccc(NC(=O)Cn2ncc3c2-c2ccccc2OC3)cc1Cl 5.73%
Cc1cccc(NC(=O)c2sc3nc(N4CCOCC4)c4c(c3c2N)CC(C)(C)OC4)c1 -5.73%
CC(=O)NCCn1c(SCC(=O)Nc2ccc(C)cc2)nc2ccccc2c1=O -5.38%
CC(C)(C)c1ccc(-c2nc(SCC(=O)Nc3ccc(Cl)cc3)[nH]c(=O)c2C#N)cc1 2.55%
CCCCNC(=O)C1CCC(CNS(=O)(=O)c2ccc(Cl)cc2)CC1 (configuration not stated) -5.96%
CNC1CCC(N(Cc2cccc(-c3ccncc3)c2)C(=O)c2sc3ccccc3c2Cl)CC1 (configuration not stated) -22.3%
NC(=O)c1ccc2nc(-c3ccc(Oc4ccc(Cl)cc4)cc3)[nH]c2c1 19.6%
Cc1ccc(Cl)cc1-n1ncc2c(N3CCCCCC3)ncnc21 3.95%
Cc1ccccc1CN1C(=O)c2ccccc2Sc2ccc(C(=O)NC3CCCC3)cc21 -0.474%
COc1ccc(OC)c(/C=C/C(=O)Nc2ccc(C(=O)OCCC(C)C)cc2)c1 0.239%
O=S(=O)(NCc1ccc(Cl)cc1)c1ccc(-c2cnc(C3CC3)o2)cc1 25.4%
CCN(Cc1ccccc1)c1ncnc2c1nnn2C 2.57%
CCc1cnc2c(c1SCC(=O)c1ccc(OC)cc1)c(=O)n(C)c(=O)n2C -0.572%
COc1cccc(-n2c(-c3cccc(F)c3)nc3c(cnn3-c3ccc(C)cc3)c2=O)c1 25.4%
CCc1ccc(S(=O)(=O)c2nnn3c2nc(Nc2ccc(F)cc2)c2cc(Cl)ccc23)cc1 -7.37%
O=C(Nc1cccnc1)c1cc(-c2cccc(Cl)c2)on1 -10.3%
Nc1ccc(S(=O)(=O)Nc2ncccn2)cc1 -4.63%
Cc1ccc(C(=O)Nc2nnc(S(=O)(=O)N3CCc4ccccc43)s2)cc1 7.31%
COc1ccc(NC(=O)c2cc(CN3CCCC3)on2)cc1Cl 8.7%
